Consider 26 molecules from PubChem BioAssay AID1745853 (National Center for Advancing Translational Sciences (NCATS), 2022).

Molecules are shown by their SMILES. The list shows a part of the results. The main result of the screen is listed elsewhere. These columns were measured beside it and carry no call.

Assay in all cases: Primary Screen for Target Class Profiling of Small Molecule Inhibitors of Methyltransferases
For assay [1], the target named is Glycine N-methyltransferase (Homo sapiens) (UniProt Q14749). Particulars: purified enzyme, MTase-Glo SAH luminescence; measured here: GNMT inhibition; at 40 µM; stronger effect = lower value. In outline: (§1)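 Each enzyme was reacted with SAM and its substrate, with compounds tested once at 40 uM; SAH formed was read by MTase-Glo luminescence.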
In assay [2] the target is Guanidinoacetate N-methyltransferase (Homo sapiens) (UniProt Q14353). Particulars: purified enzyme, MTase-Glo SAH luminescence; measured here: GAMT inhibition; at 40 µM; stronger effect = lower value. In outline:
as §1

The target in assay [3] is Histamine N-methyltransferase (Homo sapiens) (UniProt P50135). Particulars: purified enzyme, MTase-Glo SAH luminescence; measured here: HNMT inhibition; at 40 µM; stronger effect = lower value. In outline: as §1
Assay [4] has as its target Nicotinamide N-methyltransferase (Homo sapiens) (UniProt P40261). Conditions: purified enzyme, MTase-Glo SAH luminescence; measured here: NNMT inhibition; at 40 µM; stronger effect = lower value. In outline:
as §1

The target in assay [5] is Phenylethanolamine N-methyltransferase (Homo sapiens) (UniProt P11086). Particulars: purified enzyme, MTase-Glo SAH luminescence; measured here: PNMT inhibition; at 40 µM; stronger effect = lower value. In outline:
as §1
On the % scale 0 is the no-effect control and ±100 the full control effect.

Consider `CSc1cccc(NC(=O)N2Cc3ccccc3-n3cccc3C2C)c1` (stereo not drawn), for which the activity change, negative = inhibition in assay [1] was 7.83%; in assay [2], 0.88%; in assay [3], -1.23%; in assay [4], -8.5%; in assay [5], -0.384%.
The corresponding values for `CC(C)NC(=O)N1CC[C@@H](CC(=O)O)[C@@H](CCN2C[C@@H]3C[C@H](C2)c2cccc(=O)n2C3)C1` are -1.38%, 0.719%, 1.19%, 1.94% and -17.2%.
The corresponding values for `CCC1c2cccn2-c2ccccc2CN1C(=O)NCCCOC` (stereo not drawn) are -2.85%, 3.57%, -5.48%, -7.42% and -3.45%.
Consider `Cc1cccc(NC(=O)N2Cc3ccccc3-n3cccc3C2C(C)C)c1` (stereo not drawn), for which the activity change, negative = inhibition worked out at 4.62% in assay [1]; 0% in assay [2]; 2.99% in assay [3]; 5.55% in assay [4]; 7.26% in assay [5].
Consider `CN(C)c1ccc(C2c3cccn3-c3ccccc3CN2C(=O)Nc2ccc(F)c(Cl)c2)cc1` (stereo not drawn), for which the activity change, negative = inhibition turned out to be 5.19% in assay [1]; 0% in assay [2]; 1.37% in assay [3]; 3.21% in assay [4]; 2.71% in assay [5].
Take `CN(Cc1cccc(-c2ccncc2)c1)C(=O)Oc1ccc(-c2ccc(C(N)=O)cc2)cc1`: the activity change, negative = inhibition in assay [1] was 2%; in assay [2] it was -14.7%; in assay [3] it was -4.57%; in assay [4], -26.4%; in assay [5], -17.1%.
For `CC1c2cccn2-c2ccccc2CN1C(=O)Nc1cccc(Br)c1` (stereo not drawn), the activity change, negative = inhibition in assay [1] is 9.99%; in assay [2], 0%; in assay [3] it was 3.49%; in assay [4], 0.58%; in assay [5] it was -2.19%.
For `CCc1ccc(NC(=O)N2Cc3ccccc3-n3cccc3C2c2ccccc2)cc1` (stereo not drawn), the activity change, negative = inhibition in assay [1] is 8.68%; in assay [2] it was 1.33%; in assay [3], 0.583%; in assay [4] it was -4.18%; in assay [5] it was 2.67%.
With `COc1ccc(NC(=O)N2Cc3ccccc3-n3cccc3C2c2ccc(F)cc2)cc1` (stereo not drawn), the activity change, negative = inhibition is 2.52% in assay [1]; 2.1% in assay [2]; 4.57% in assay [3]; 1.15% in assay [4]; -0.211% in assay [5].
Consider `CC(=O)O[C@@H]1CC2C(C)(C)C(=O)C=C[C@]2(C)C2CC[C@]3(C)C(=CC(=O)O[C@H]3c3ccoc3)[C@@]21C` (stereo partly drawn), for which the values for the activity change, negative = inhibition in assay [2], in assay [4] and in assay [5] were -9.56%, -36.3% and -16.7%, respectively.
As to `CCC1c2cccn2-c2ccccc2CN1C(=O)Nc1cccc(Cl)c1` (stereo not drawn), the activity change, negative = inhibition came to 1.46% in assay [1]; 0.209% in assay [2]; 7.91% in assay [3]; 6.48% in assay [4]; 8.1% in assay [5].
`Cc1ccccc1NC(=O)N1Cc2ccccc2-n2cccc2C1c1ccc(N(C)C)cc1` (stereo not drawn): the activity change, negative = inhibition in assay [1] worked out at 3.73%; in assay [2], 0%; in assay [3], 2.01%; in assay [4], 4.01%; in assay [5] it was 4.62%.
As to `C/C1=C/[C@@H](C)C/C=C/[C@H]2[C@@H]3O[C@]3(C)[C@@H](C)[C@H]3[C@H](Cc4c[nH]c5ccccc45)NC(=O)[C@]32C(=O)/C=C\C(=O)[C@@H]1O`, the activity change, negative = inhibition in assay [1] was -6%; in assay [2] it was -1.41%; in assay [3], 1.25%; in assay [4], -11.4%; in assay [5], 1.64%.
Turning to `COC1C(O)C(OC2CCC3(C=O)C(CCC4C3CCC3(C)C(C5=CC(=O)OC5)CCC43O)C2)OC(C)C1OC1OC(CO)C(O)C(O)C1O` (stereo not drawn), the activity change, negative = inhibition in assay [1] was 0%; in assay [2], 0.85%; in assay [3], 6.49%; in assay [4], -7.63%; in assay [5] it was 2.04%.
Regarding `CO[C@H]1CC=C2CCN3CCC4=C(CC(=O)OC4)[C@]23C1`, the activity change, negative = inhibition in assay [1] was -6.32%; in assay [2] it was 6.76%; in assay [3], -0.206%; in assay [4] it was -0.697%; in assay [5], 6.68%.
On to `CC[C@@H]1C[C@H]2CC[C@H](O2)[C@H](C)C(=O)O[C@@H](C)C[C@@H]2CC[C@@H](O2)[C@@H](C)C(=O)O[C@H](CC)C[C@H]2CC[C@H](O2)[C@H](C)C(=O)O[C@@H](C)C[C@@H]2CC[C@@H](O2)[C@@H](C)C(=O)O1`, for which the activity change, negative = inhibition is -48.4% in assay [1]; -38.5% in assay [2]; -8% in assay [3]; -18.9% in assay [4]; -38.5% in assay [5].
In the case of `C[C@]12CC[C@H](O)CC1=CC[C@@H]1C2CC[C@]2(C)[C@@H](C3=CC(=O)OC3)CC[C@]12O` (stereo partly drawn), the activity change, negative = inhibition was -1.4% in assay [1]; -1.55% in assay [2]; 10.1% in assay [3]; -16.2% in assay [4]; -10.6% in assay [5].
Take `CCCCn1cc(C(=O)c2cccc3ccccc23)c2ccccc21`: the activity change, negative = inhibition is 2.6% in assay [1]; -12.4% in assay [2]; 8.74% in assay [3]; -21.2% in assay [4]; -4.04% in assay [5].
For `CCCS(=O)(=O)N1C[C@@H]2C[C@H](C1)c1c(-c3ccccc3)ccc(=O)n1C2` the same measures were -3.52%, -3.11%, -1.92%, -3.23% and -1%.
For `COC(=O)CCNC(=O)N1Cc2ccccc2-n2cccc2C1c1ccc(OC)cc1` (stereo not drawn), the activity change, negative = inhibition in assay [1] is 1.45%; in assay [2] it was 2.46%; in assay [3], -6.11%; in assay [4], -10%; in assay [5], -2.06%.
Regarding `C[N+]1(C)CCOC(O)(c2ccc(-c3ccc(C4(O)C[N+](C)(C)CCO4)cc3)cc2)C1` (stereo not drawn), the activity change, negative = inhibition in assay [1] was 2.19%; in assay [2] it was 14.5%; in assay [3], 7.25%; in assay [4], -2.84%; in assay [5] it was 4.84%.
On to `Nc1ccncc1`, for which the activity change, negative = inhibition in assay [1] was -0.028%; in assay [2] it was 7.64%; in assay [3] it was -20.2%; in assay [4], -29.1%; in assay [5], 3%.
On to `CCOc1ccc(C2c3cccn3-c3ccccc3CN2C(=O)Nc2ccc(F)c(Cl)c2)cc1` (stereo not drawn), for which the activity change, negative = inhibition in assay [1] is -7.74%; in assay [2] it was 4.83%; in assay [3], -3.16%; in assay [4] it was 4.59%; in assay [5] it was 1.85%.
For the molecule `CCN1C(=O)CCNCC12CCOCC2`, the activity change, negative = inhibition in assay [1] is -1.05%; in assay [2], 1.56%; in assay [3], 1.18%; in assay [4], -0.894%; in assay [5], -1.33%.
Consider `CCOCCCNC(=O)N1Cc2ccccc2-n2cccc2C1c1ccc(SC)cc1` (stereo not drawn), for which the activity change, negative = inhibition in assay [1] was -1.93%; in assay [2], 0%; in assay [3], 3.78%; in assay [4] it was 1.44%; in assay [5] it was 5.29%.
Turning to `CCOC(=O)Nc1ccc(NCc2c(C)cc(C)cc2C)cc1N`, the activity change, negative = inhibition is -1.99% in assay [1]; -15.9% in assay [2]; 4.25% in assay [3]; -33.8% in assay [4]; -8.65% in assay [5].
